Measurements from PMC4336329 (PLoS ONE, 2015).
In all, about 310,000 compounds went through this assay and about 2,200 (0.71%) showed an effect of 50% or more. Effects have a minus sign here. The list shows a part of the results.

target: human ether-à-go-go-related gene (hERG) potassium channel (human, UniProt Q12809); test: primary screen, population patch clamp on CHO cells stably expressing hERG
Sequence (Q12809 whole entry, looked up): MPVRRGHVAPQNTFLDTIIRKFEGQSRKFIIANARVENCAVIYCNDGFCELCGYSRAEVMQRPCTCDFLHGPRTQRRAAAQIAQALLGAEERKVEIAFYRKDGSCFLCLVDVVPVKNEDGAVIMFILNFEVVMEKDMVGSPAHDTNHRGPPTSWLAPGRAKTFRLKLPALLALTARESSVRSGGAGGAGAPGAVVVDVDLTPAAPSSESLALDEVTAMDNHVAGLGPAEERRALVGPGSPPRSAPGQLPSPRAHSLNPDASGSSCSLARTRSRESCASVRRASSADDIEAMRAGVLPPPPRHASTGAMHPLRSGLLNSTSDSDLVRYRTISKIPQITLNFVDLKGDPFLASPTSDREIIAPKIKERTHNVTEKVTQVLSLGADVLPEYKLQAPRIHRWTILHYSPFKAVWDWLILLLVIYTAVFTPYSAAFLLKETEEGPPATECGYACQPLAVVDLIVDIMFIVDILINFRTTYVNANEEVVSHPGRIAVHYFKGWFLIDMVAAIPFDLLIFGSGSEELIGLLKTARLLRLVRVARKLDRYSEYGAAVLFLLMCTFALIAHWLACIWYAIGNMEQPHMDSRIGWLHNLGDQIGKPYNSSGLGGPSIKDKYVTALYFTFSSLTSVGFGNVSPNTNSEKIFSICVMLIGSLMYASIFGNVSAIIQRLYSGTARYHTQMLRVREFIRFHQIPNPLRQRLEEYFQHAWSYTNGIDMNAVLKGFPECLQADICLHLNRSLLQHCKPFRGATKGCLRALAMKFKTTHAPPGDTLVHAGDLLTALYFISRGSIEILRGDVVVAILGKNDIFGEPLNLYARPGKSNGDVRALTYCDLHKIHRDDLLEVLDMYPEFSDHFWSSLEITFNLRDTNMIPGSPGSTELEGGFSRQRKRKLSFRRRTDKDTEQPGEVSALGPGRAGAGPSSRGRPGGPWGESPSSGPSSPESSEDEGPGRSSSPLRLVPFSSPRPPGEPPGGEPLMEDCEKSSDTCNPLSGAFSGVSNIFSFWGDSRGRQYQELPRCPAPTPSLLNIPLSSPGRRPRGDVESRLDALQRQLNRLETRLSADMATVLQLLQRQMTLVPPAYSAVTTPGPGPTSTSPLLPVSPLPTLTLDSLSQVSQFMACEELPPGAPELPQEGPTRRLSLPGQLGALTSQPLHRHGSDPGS

| SMILES | hERG current change (%, negative = inhibition) at 1uM [%] |
| --- | --- |
| O=S(=O)(Nc1cccc(-c2nnco2)c1)c1ccc(Cl)cc1 | 6.96 |
| Cc1n[nH]c(C)c1CCC(=O)N/N=C/c1cccc([N+](=O)[O-])c1 | 7.51 |
| CC1CC(C)CN(CCOCCSc2ccc(Cl)cc2)C1.O=C(O)C(=O)O (stereo not drawn) | -11.6 |
| COCc1nc2ccccc2n1Cc1c(F)cccc1Cl | 6.84 |
| Nc1c(C(=O)C2CC2)sc2nc3c(cc12)CCC3 | 3.7 |
| COc1ccc(C(=O)NCC(O)CN2CCOCC2)cc1[N+](=O)[O-] (stereo not drawn) | 10.8 |
| O=C(NCc1cccc2ccsc12)c1cccs1 | 14.9 |
| O=C(Nc1ccccc1O)C(c1ccccc1)c1ccccc1 | 5.5 |
| COc1ccccc1C(=O)Oc1ccccc1C(=O)Nc1ccccc1 | 30.5 |
| CC(=O)/C(N=Nc1ccc(C(=O)O)cc1)=C(\C)O | -5.31 |
| CCOc1ccc2nc(NC(=O)Cc3cccs3)sc2c1 | 6.15 |
| O=c1oc2ccccc2c(Nc2cc3ccccc3cc2O)c1[N+](=O)[O-] | 12.5 |
| CCn1cc(S(=O)(=O)Nc2cc(C)ccc2F)cn1 | 10.5 |
| O=C(O)c1cccc(S(=O)(=O)Nc2ccc(S(=O)(=O)N3CCOCC3)cc2)c1 | 6.15 |
| COc1ccc(NC(=O)CN(C)C(=O)CCNC(=O)c2ccccc2OC)cc1 | 12.3 |
| O=c1[nH]c(C2CCN(S(=O)(=O)c3ccccc3C(F)(F)F)CC2)nc2c1nnn2Cc1ccccc1 | 0.439 |
| Cc1nc2ccccc2c(=O)n1CCc1ccccc1 | 13.1 |
| Cc1cc(-c2ccccc2)nc(Oc2ccc(C(C)(C)C)cc2)c1S(C)(=O)=O | 14.8 |
| c1ccc(N2CCN(c3ncnc4sc5c(c34)CCC5)CC2)cc1 | 13 |
| O=C(O)c1cc(-n2nnnc2SCc2ccccc2F)ccc1Cl | 11.1 |
| Oc1c(Cl)cc(Cl)cc1C(C#Cc1ccccc1)N1CCOCC1 (stereo not drawn) | 5.55 |
| O=C(NC(=S)N1CCCC1)c1ccc(Cl)cc1Cl | 8.74 |
| C[n+]1c(/C=C/c2ccc3c(c2)OCO3)ccc2ccccc21.[I-] | 24.8 |

| SMILES | hERG current change (%, negative = inhibition) at 1uM [%] |
| --- | --- |
| COCC(=O)N1CCC(Oc2ccc(C(=O)N(C)C(C)c3ccon3)cc2)CC1 (stereo not drawn) | 17.8 |
| Cc1nnsc1C(=O)Nc1ccc(S(=O)(=O)N2CCCC(C)C2)cc1 (stereo not drawn) | 15.2 |
| O=C(CCSCc1cccc(Cl)c1)NCCC1=CCCCC1 | -4.79 |
| C[C@H]1CCC[C@@]2(O[C@H](CCO)C[C@@H](O)[C@@H]2O)O1 | 18.5 |
| C=CCn1c(C(C)C)nc2ccccc21.Cl | 15.4 |
| Cc1noc(C)c1COc1cccc(C(=O)OCC(=O)NCCN2C(=O)CSC2=O)c1 | -0.418 |
| CC(C)CCc1noc(CN2CCC(C(=O)N3CCOCC3)CC2)n1 | 7 |
| COc1ccc(S(=O)(=O)N2CCCCC2)cc1NC(=S)Nc1cccc(Cl)c1C | 2.35 |
| COc1ccc(NC(C)=O)cc1S(=O)(=O)NCCc1ccccn1 | 5.7 |
| NC1=NC[C@@H](Cc2ccc(O)cc2)N1CCC12CC3CC(CC(C3)C1)C2 | 10.4 |
| c1ccc(CCCN2CCOCC2)cc1 | 22.1 |
| CC(C)Oc1ccc(C2(C#N)CC[N+](C)(C)CC2)cc1.[Br-] | 8.79 |
| CCN1CCN(C(=S)Nc2ccc3nc4n(c(=O)c3c2)CCCCC4)CC1 | 7.5 |
| CC(=O)c1ccc(N2CCN(CC(O)COC(c3ccccc3)c3ccccc3)CC2)cc1 (stereo not drawn) | -12.5 |
| C=CCNC(=O)c1cc2sccc2n1C | 7.53 |
| NNC(=O)c1c[nH]c2ccc(OCc3ccccc3)cc12 | 10.4 |
| Cc1ccn2c(NC3CCCC3)c(-c3ccccn3)nc2c1 | 11.2 |
| CCCS(=O)(=O)c1nc(S(=O)(=O)c2ccc(C)cc2)c(N2CCOCC2)s1 | 24.5 |
| COc1cc(CC(NC(C)=O)C(=O)NC2CCN(S(=O)(=O)c3ccc(NC(C)=O)cc3)CC2)cc(OC)c1 (stereo not drawn) | 21.1 |
| CC(C)CC(C)NNC(=O)c1cc2ccccc2[nH]1 (stereo not drawn) | 11.9 |
| Cn1c(=O)c2c(nc(NCCO)n2CCCc2ccccc2)n(C)c1=O | 9.89 |
| COc1ccc(C)cc1NC(=O)C1CCN(C(=O)Cc2ccccc2)CC1 | 6.6 |
| COc1ccc(Nc2ncc(F)c(N3CCOCC3)n2)cc1 | 15.9 |

| SMILES | hERG current change (%, negative = inhibition) at 1uM [%] |
| --- | --- |
| N#CCCN(NC1=NS(=O)(=O)c2ccccc21)C(=O)c1ccccc1Br | -1.57 |
| O=C1COc2ccc(C(=O)NC3CC3)cc2N1 | 11.6 |
| CCCSc1nc2c(cnn2-c2ccccc2)c(=O)[nH]1 | 6.83 |
| CCCC1CC(C#N)N(N(C)C)C1=C(C#N)C#N (stereo not drawn) | -0.895 |
| CC(=O)NC(C)c1nc2ccccc2n1Cc1ccccc1F (stereo not drawn) | 4.02 |
| CCOc1ccc(/C=N/Nc2nc(=O)[nH]nc2C)cc1OC | -0.682 |
| Cc1ccc(-n2c(O)c(/C=N/NC(=O)C3COc4ccccc4O3)c3ccccc3c2=O)cc1 (stereo not drawn) | -2.19 |
| O=C(Nc1ccc(N2CCN(C(=O)c3cccs3)CC2)cc1)c1ccccc1Cl | 20.4 |
| CC1(C)Cc2c(cnn2-c2ccc(F)cc2)C(NC(=O)CCN2CCCC2=O)C1 (stereo not drawn) | 11.7 |
| COc1ccc(OC)c(-n2c(SCC(=O)Nc3cccc(S(N)(=O)=O)c3)nc3ccccc3c2=O)c1 | -6.71 |
| CNC(=O)COC(=O)c1c2c(nc3ccccc13)CCC2 | 9.55 |
| O=C(COc1ccccc1-c1ccccc1)N/N=C/c1ccncc1 | -9.22 |
| CCCCn1c(CCn2nc(C)c(Br)c2C)n[nH]c1=S | 8.84 |
| CCCCC1(CCCC)NC(=S)N(Nc2ccc(C)cc2)C1=O | 5.79 |
| CC(C(=O)NN)c1ccc([N+](=O)[O-])cc1 (stereo not drawn) | 6.21 |
| O=S(=O)(Nc1ccc(Oc2ncccn2)c(Cl)c1)c1ccc(Cl)cc1 | 9.33 |
| O=S(=O)(Cc1cc(Sc2ccc(Cl)cc2)nc(-c2ccccc2)n1)c1ccccc1 | -1.19 |
| Cc1ccc(S(=O)(=O)c2c(C)nn(C(C)(C)C)c2OC(=O)C(C)(C)C)cc1 | 12.1 |
| CCCc1sc(N2CCCC(C(N)=O)C2)nc1-c1ccccc1 (stereo not drawn) | 7.03 |
| CCOC(=O)C(C#N)C(c1cccnc1)c1c(C)[nH][nH]c1=O (stereo not drawn) | 19.8 |
| C=CCN1C(=O)NC(=O)/C(=C/c2ccc(OC)c(COc3ccc(NC(C)=O)cc3)c2)C1=O | 11 |
| COc1ccccc1NC(=O)c1ccc(CN2CCOCC2)cc1 | 5.38 |
| Cc1ccc(-n2ncc3c(=O)n(CC(=O)N(C(C)C)C(C)C)cnc32)cc1 | 15.4 |

| SMILES | hERG current change (%, negative = inhibition) at 1uM [%] |
| --- | --- |
| COc1cc2c(cc1NC(=O)c1cc(-c3ccncc3)nc3ccccc13)oc1ccccc12 | -3.26 |
| O=C(OCc1cc(=O)n2c(n1)sc1ccccc12)c1ccc(O)cc1O | 7.81 |
| CCOC(=O)C1CCN(CCCSc2ccc(C)cc2)CC1.Cl | -36.8 |
| C=CCN1C(=O)c2ccc(C(=O)NCCc3ccc(OC)c(OC)c3)cc2C1=O | 13.4 |
| CCC(=O)c1c[nH]c(C(=O)NCc2ccccc2OC)c1 | 10.4 |
| CCN(CC)Cc1c(C(=O)N/N=C/c2cccnc2)nnn1-c1nonc1N | 6.93 |
| CSc1ccccc1NC(=O)Cn1c([N+](=O)[O-])cnc1C | 7.33 |
| Cc1ccc2nc(C3CCN(S(=O)(=O)c4ccc5ccccc5c4)CC3)[nH]c2c1 | 9.25 |
| O=C(CNC(=O)[C@@H]1Cc2ccccc2CN1)Nc1ccc2c(c1)OCCO2 | 13.4 |
| Cc1ccc(SCc2[nH]nc3c2C(c2ccco2)C(C#N)=C(N)O3)cc1 (stereo not drawn) | 11.4 |
| O=c1cc(CSc2nnc(-c3cccs3)n2Cc2ccccc2)nc2sc3ccccc3n12 | -4.25 |
| Clc1ccc(Cn2ccnc2)cn1 | 0.575 |
| CC(=O)Nc1ccc(S(=O)(=O)Nc2ccc(Cl)cn2)cc1 | 20.5 |
| CCc1ccc(C2c3[nH]c4ccccc4c3CCN2C(=O)CN2CCN(CC)CC2)cc1 (stereo not drawn) | 12 |
| O=C(O)c1cc(NCc2ccccc2C(F)(F)F)ccc1N1CCOCC1 | -7.04 |
| CC1=CC=CC2=NC(=O)CC(C)(C(=O)N(CC(=O)NC(C)C)C3CCCC3)N12 (stereo not drawn) | 9.81 |
| CC(C)Sc1nc2c(cnn2-c2ccccc2)c(=O)[nH]1 | 15.4 |
| CCOC(=O)C1=C(C)N=c2s/c(=C/c3cccc(OCC(=O)O)c3)c(=O)n2C1c1ccc(F)cc1 (stereo not drawn) | 16.2 |
| COc1ccc(C(=O)N(c2ccc(C)cc2)C2C=CS(=O)(=O)C2)cc1OC (stereo not drawn) | 10.7 |
| CCOC(=O)c1cc(=O)c2c([N+](=O)[O-])ccc(OC)c2o1 | 10.1 |
| Cc1ccc(C(=O)N2CCN(S(=O)(=O)N3CCOCC3)CC2)cc1 | 7.77 |
